Measured values as given in publication PMC12136788.
The list shows a part of the results.

T1: UNK ZnF1-3 (human, UniProt Q9C0B0 31-174)
T1 sequence: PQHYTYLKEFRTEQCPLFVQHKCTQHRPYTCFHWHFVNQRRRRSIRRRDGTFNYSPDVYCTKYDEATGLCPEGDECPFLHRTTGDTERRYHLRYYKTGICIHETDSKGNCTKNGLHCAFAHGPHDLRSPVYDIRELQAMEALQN

B1: 53240759_53241010_1544_CDS_ENSG00000126012_ENST00000404049|human|control|control (ssRNA)
RNA: GGGAGUUCUACAGUCCGACGAUCAUACUCAACAGUCACAUCUUCCUCAAUGCUAUUUACCAGCCUCCAGAACUCCUUCUCCACAAGUUCUGUGGGCACCAUAUGCACGGGCAUGUUGAAGUAGUCAGCUUUAAAGGAGUCGGCCAACAGAGGAUUGAGCAUCA
B2: chr2:31460152:31460153:+_ENSMUSG00000026843_ENSMUST00000055244|mus_hu|FALSE|FALSE (ssRNA)
RNA: GGGAGUUCUACAGUCCGACGAUCAUUCUGGAUCUUUUUGAUCAUUUCCCCGUUUCUUCCUAUUACAAUCCCCACAGCAAACCUAGGCACAGAUACCUCUAUACUGCCUCCUCCCAUUCGAGAGUUGAAAUCGCCGCGUACACCCAACAGAGGAUUGAGCAUCA
B3: chr12:89993059:89993060:-_ENSG00000070961_ENST00000261173|hu_mus|FALSE|FALSE (ssRNA)
RNA: GGGAGUUCUACAGUCCGACGAUCAGGUAUCUCCUCCUUCUGGGUUCCAUGACCAGCUUCUUUUAGAAACUUUAAGCGGCUGGUUGGAAUGGUUGAAAUAAGCUGGCCCCAGAGUAAGGUCCCCAUUCCCAGGAAUAUCGACCACAACAGAGGAUUGAGCAUCA
B4: chr7:141450121:141450122:+_ENSG00000106028_ENST00000265304|hu_mus|hu_hu_hu_mus_True|28_28 (ssRNA)
RNA: GGGAGUUCUACAGUCCGACGAUCUCAUCCGUUCUAUGCCUUUUCUUUUGUCUGGUCACUCAGAAAUAUAAUGUUAUCAGCUAUGAUUGUUGUUGCUUGCCGCCUCACAUUAUUUUUAUCCAUGUACUCGCCAUAGUCCACUUUCAACAGAGGAUUGAGCAUCA
B5: chr1:184023491:184023492:+_ENSG00000198860_ENST00000361641|hu_hu|FALSE|FALSE (ssRNA)
RNA: GGGAGUUCUACAGUCCGACGAUCCAUGAGGUCCAGGUAAACCAAGAACGCUACAUAAACUUGGGUGGCAUCUCCUAUAUCUAAUUCCAUCAUUUCUAGAUACUUAGGGUGAGUGCCCAUCCAGGCGUCCUCAGGGGCCCACGACAACAGAGGAUUGAGCAUCA
B6: chr7:109302599:109302600:-_ENSMUSG00000063550_ENSMUST00000070165|mus_hu|FALSE|FALSE (ssRNA)
RNA: GGGAGUUCUACAGUCCGACGAUCGGAAUCUUCAUCUCCAUCCUGCUGGUGAUUCUCAUCAACAGGUUUGCUUAGGAAACUAAAUCUCUCUCCAUUUUCUGGAUAUUCAGAUGGUGAAGCUAGAUUUUCUGAAUCACGAUUAACCAACAGAGGAUUGAGCAUCA
B7: chr1:120459247:120459248:-_ENSG00000134250_ENST00000256646|hu_mus|motif|central (ssRNA)
RNA: GGGAGUUCUACAGUCCGACGAUCCCGAGCCACAUCCCGGGGAAGGCGGUCCAUGUGGUCAGUGAUGUCCCGGUUGGCAAAAUGGUCGGACAGGAUUUUGGCCGCUUCAUAACUUCCCUCUCGGGCAGCAAGAAACAAAGGUGUCAACAGAGGAUUGAGCAUCA
B8: chr19:36946997:36946998:+_ENSMUSG00000024811_ENSMUST00000025729|mus_hu|motif|central (ssRNA)
RNA: GGGAGUUCUACAGUCCGACGAUCAUAUUUUCCUUUUGCUGCUGCUUCAUGUAAAGGUGUAAAUUUCCAUAAAUCAGCGGCAUUAACGGCUGCUCCAUGUUUAACAAGAAGUUCUGCAACUUCAUAAUGUCCAUAAGAACAUGCCAACAGAGGAUUGAGCAUCA
B9: 45705241_45705361_2046_CDS_ENSMUSG00000023944_ENSMUST00000024739|mouse|control|control (ssRNA)
RNA: GGGAGUUCUACAGUCCGACGAUCACCAGAGGAGAGCAGAGCAGUUUCAAACAGCAGCACCACCAGGUCCUUGACAGCUUUGUCGUUUUUGUCUGCCUCAGCCUUCUGCCGCAGGGUCUCCACGAUGGGGUGGUCAGGGUUGAUCAACAGAGGAUUGAGCAUCA
B10: 87490901_87491657_411_3pUTR_ENSMUSG00000025613_ENSMUST00000026704|mouse|control|control (ssRNA)
RNA: GGGAGUUCUACAGUCCGACGAUCCGAUAUUACCUCUGAUACUGACAGGCCAAUCCUCAGAAGUUCUUCAGCUAGUUCCAGAAGAGCCCCAGCGAACACCAGAACGAAGUUUGUGCCAUCACCAACCUCUUGUUCUUGCAUAUGCAACAGAGGAUUGAGCAUCA
B11: chr6:114281168:114281169:-_ENSG00000196591_ENST00000368632|hu_hu|hu_hu_hu_mus_True|68_78 (ssRNA)
RNA: GGGAGUUCUACAGUCCGACGAUCUUCCAUUUUUCGGUAUAAACCAUAAUUUAGCAGCAAGUUAUGGGUCAUGCGGAUUCUAUGAGGCUUCAUGGGAUGACCCUGGCCAUAAUAAUAAUUGCCAAUAUCACCAUCAUAGUAGUACAACAGAGGAUUGAGCAUCA
B12: 72853506_72853626_654_CDS_ENSMUSG00000034563_ENSMUST00000085350|mouse|control|control (ssRNA)
RNA: GGGAGUUCUACAGUCCGACGAUCAAAGUGGCGUUUACUUGGCUCCUUGGAGGGCUCAUCUUCCGGCUCAGCGAGUGGAGGCUCCUCAGACUCUGAGAUAGAAACGGUCUUCUUCCUGUUGCGGCGCCGUCUAGGAGCAGGGCUCAACAGAGGAUUGAGCAUCA
B13: chr5:67447025:67447026:+_ENSMUSG00000037736_ENSMUST00000038188|mus_hu|FALSE|FALSE (ssRNA)
RNA: GGGAGUUCUACAGUCCGACGAUCCUGCACCUAUAUGGAACCCACAUGCAAAGAACCCAUCUAGCAUGUAAUAAAUAAUCGCUAGCCAUACUCAAUAAGACACGGAAAAAUUAUUGCUUACAUAACAGAAAAACAUCUACUUGACAACAGAGGAUUGAGCAUCA
B14: chr8:74858975:74858976:-_ENSG00000154582_ENST00000284811|hu_mus|hu_hu_hu_mus_True|38_68 (ssRNA)
RNA: GGGAGUUCUACAGUCCGACGAUCGACCUUGUAGGUAAAAUACAUGCACACUUUUGAUAGCACAUGUGAAGGUAUCUCUCUAAAAUUGACCUCGUUGGUUUCGUUCUCAGCAAACUGACCUGGACCACUCAACAUAGCCUUUAUCAACAGAGGAUUGAGCAUCA
B15: chr7:140404665:140404666:+_ENSG00000090266_ENST00000247866|hu_hu|hu_hu_hu_mus_False|28_28 (ssRNA)
RNA: GGGAGUUCUACAGUCCGACGAUCUGCUCCUACUCGUCCAGAGAGUUUACAGUGUCAGUCCUCGUCAUCAGGAGGGAUUCCCAGUUCUUCAUCUGUCCACUGUGAAGGAUCAGGAUAUGAAAAGUGACCCAGCACAGCAUCCGACAACAGAGGAUUGAGCAUCA
B16: chr6:29525140:29525141:-_ENSMUSG00000012535_ENSMUST00000012679|mus_mus|FALSE|FALSE (ssRNA)
RNA: GGGAGUUCUACAGUCCGACGAUCAUUGGUUUUGUAUAAAUGUUCUCCUAGUCGGUACCAAAAGUUAAAGGAAAUUUCUACUACCUCAUACUGAGGGUGGCCUGCACAGAUAAGAAGCAAUUCCAAAGUUCGAAGAUCUCCCAGCAACAGAGGAUUGAGCAUCA
B17: chr8:72619372:72619373:-_ENSMUSG00000002341_ENSMUST00000002412|mus_mus|motif|central (ssRNA)
RNA: GGGAGUUCUACAGUCCGACGAUCAAUAAAACCAAAGAAGGCUGGGCAGACAGUUCGCUGAGUUCCAGGUUAGCCUGGUCGGUAUAGCAAGUUCCAGGCCAGCCAGGGCCGCACAGUGAGGCCCUGUCUCAAAACAAAAACAACCAACAGAGGAUUGAGCAUCA
B18: 100652165_100655875_1851_CDS_ENSMUSG00000020919_ENSMUST00000004143|mouse|control|control (ssRNA)
RNA: GGGAGUUCUACAGUCCGACGAUCCAAGCCCCGGUUGCUCUGUACUUCAGCCUUGAAUUUCAUGUUGAGCGCUUCACACAGCUGCGGCCACAGCACCUUGUCAGGCACGGCAAAUGGCACCCUGCCAGGCUCUGCAAAGGCGUUCAACAGAGGAUUGAGCAUCA
B19: chrX:70347820:70347821:+_ENSG00000184634_ENST00000374080|hu_hu|FALSE|FALSE (ssRNA)
RNA: GGGAGUUCUACAGUCCGACGAUCUAGCCCCGUGUAGGUGAAGGUGUGAGCUGCAGGGUUCUCUAGAGUGUCGAUCAUGAACUCAGGUGCCCAGCGCAUAUUUGAUUCCGAUGGCUCCACGUUGCAGUAGAUGGUGUUCUUCACCAACAGAGGAUUGAGCAUCA
B20: chr1:22412998:22412999:+_ENSG00000070831_ENST00000400259|hu_hu|FALSE|FALSE (ssRNA)
RNA: GGGAGUUCUACAGUCCGACGAUCUAUCUCAGGCACCCACUUUUCUUUCACGUUUUCAAAUGAAGAUGGAGAGACCACUGAAAAACAGACUAGAAAUACAUCUGUUUGUGGAUAACUCAGCGGUCGUAAUCUGUCAUAAUCCUCCAACAGAGGAUUGAGCAUCA
B21: chr7:54825262:54825263:-_ENSG00000132432_ENST00000352861|hu_hu|hu_hu_hu_mus_False|88_108 (ssRNA)
RNA: GGGAGUUCUACAGUCCGACGAUCCUGACUUGGCUCAUCCACAAACUUUACCUGAUCAUCCAUGUUUGUUGGAUGGCGGAUUGAGAGCGUAGAGACACGUAGCUCAGGAGAGAACCGAGCCCAACGGAACCGGAAGCUGGCAACCAACAGAGGAUUGAGCAUCA
B22: 191745816_191745936_317_CDS_ENSG00000115419_ENST00000338435|human|control|control (ssRNA)
RNA: GGGAGUUCUACAGUCCGACGAUCUCCCCCGCCUCGGGGACGCCGGCACAGGGUGACCAAGGGCUGUGCCCGCCGCAGAGUCGCGCUCACGCCGGCGGGCGACCGCAGGAGCAGGUCCCGCAGCAUCCCCGAGCCUCGCAGCCGCAACAGAGGAUUGAGCAUCA

These binders were tested against T1, UNK ZnF1-3 (assay: nsRBNS (natural sequence RNA bind-n-seq); RBNS binding buffer (assumed for nsRBNS): 25 mM Tris pH 7.5, 150 mM KCl, 3 mM MgCl2, 0.01% Triton X-100, 500 ug/ml BSA, 20 U/ml SUPERase-In, 4 C; UNK is unkempt and MSI1 is Musashi-1; names of the RNAs are library labels; protein concentration not given here; high values mean tight binding).

| Binder | binding signal [enrichment R] |
| --- | --- |
| B1 | 1.18 |
| B2 | 1.02 |
| B3 | 0.956 |
| B4 | 0.425 |
| B5 | 0.967 |
| B6 | 0.353 |
| B7 | 1.24 |
| B8 | 0.707 |
| B9 | 1.85 |
| B10 | 0.926 |
| B11 | 1.05 |
| B12 | 0.828 |
| B13 | 1.42 |
| B14 | 0.642 |
| B15 | 1.2 |
| B16 | 1.11 |
| B17 | 0.712 |
| B18 | 0.799 |
| B19 | 1.16 |
| B20 | 1.03 |
| B21 | 1.05 |
| B22 | 0.638 |
